Test results from a collection of fitness landscapes (doi:10.1016/j.celrep.2020.107928).
The full ranking holds about 81,000 sequences; the median of “one-hybrid fitness for binding NBS DNA” is about -0.1, and the highest 2% start at about 0.36. The list shows a part of the results.

B1: Caulobacter ParB omega fusion; a variant is named by its letters at X, in order, B8GW30 (parent)
chain: MESVVVGEPGMSEGRRGLGRGLSALLGEVDAAPAQAPGEQLGGSREAPIEILQRNPDQPRRTFREEDLEDLSNSIREKGVLQPILVRPSPDTAGEYQIVAGERAWRAAQRAGLKTVPIMVRELDDLAVLEIGIIENVQRADLNVLEEALSYKVLMEKFERTQENIAQTIGKSXSHVANXMRLLXLPDEVQSYLVSGELTAXHARAIAAAADPVALAKQIIEGGLSVRETEALARKAPNLSAGKSKGGRPPRVKDTDTQALESDLSSVLGLDVSIDHRGSTGTLTITYATLEQLDDLCNRLTRGI

Variants of: B1
Assay: one-hybrid fitness for binding NBS DNA (the Noc-binding site; scaled: cognate 1, non-cognate 0); higher = stronger binding
Settings: with NBS DNA site
Summary of the method: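 In E. coli USO, a HIS3 reporter with its site placed 19 bp from the promoter was used to select Caulobacter ParB variants randomised at four specificity codons. Growth lasted 48 hours at 37°C on histidine-free M9 containing 0.1 mM IPTG and 5 mM 3-AT. Fitness was taken as the log change in variant-to-wild-type read ratio from Illumina sequencing of pre- and post-selection plasmids, rescaled between the non-cognate and cognate sites.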

one-hybrid fitness for binding NBS DNA, ≤ 0.2:
HVAT
GDFT
DPID
KGMG
PNPT
PGQI
PHGH
ANER
QKGN
SPHW
YDFI
FCSR
QDYL
GLRW
RVNG
TVKT
LGSN
GLLC
PWTF
GHIE
IEFC
RHAV
YRGA
NRPG
TKHT
FSLS
EVVL
FCLT
ARRG
HLSQ
LCYG
MWLW
SDSI
SNYG
MRLM
PFHV
QYSH
SKVI
EPLC
HKSS
YKAT
VQCS
QQLY
THGT
WYES
CRRL
ALLR
NEQM
MPKG
SARC
YVGI
RMWV
CGNC
SAGW
SRCD
KRIC
TRTV
WEPL
RKDK
PLRP
EAGH
LCKH
RKCL
ATHN
EKHF
QQEV
HSEP
IVIC
PNCR
KNDK
WLTV
MQTT
DGTS
RYYH
QCTW
PFDS
CRIG
YAWW
TDRY
PNIE
AQFC
TSTY
GMAT
ADMI
HAHC
CLSF
HINM
HPRK
PKIW
QSVC
EIIR
EDME
HKDD
ESWG
YVFS
RVCE
HPSL
VTKH
IAPG
IERR
HWTR
SRVE
ALDS
QQMY
RSCW
VVSR
VRRV
LKIS
GMIR
TEPT
TFYG
SSHH
REHN
DQAR
NLRH
CLRK
QQMW
ASPN
CLNC
VANG
QFKA
KLKM
VMRP
FINT
TGRM
QVEC
YLWT
DNVR
TWYC
TITL
RGMP
AHQI
RVGQ
TMPI
MKTL
ASHV
LMYF
QVQF
WTMS
RDFC
LRSP
LAWS
SPCT
YVGC
MIPM
TRPP
LSQD
PILT
LDVS
PMRR
CYLF
LKLL
AIAF
QEIV
RKEY
YISF
ARWV
SSWI
AIRV
NYSA
DYGV
KSMD
DSVR
HSAQ
YEKM
FSPR
STKG
RKIH
ERPY
ASGP
TRLK
QYSE
QLIV
LSMR
NLVR
IRRE
QASA
AWDC
VRHY
SSHL
QVDV
ISSV
PMLI
AVMV
ILMG
FCES
DHKN
KELL

one-hybrid fitness for binding NBS DNA, 0.207:
RCES

one-hybrid fitness for binding NBS DNA, 0.426:
RSTT

one-hybrid fitness for binding NBS DNA, 0.509:
QMCR

one-hybrid fitness for binding NBS DNA, 0.242:
TLKR

one-hybrid fitness for binding NBS DNA, 0.461:
QRPS

one-hybrid fitness for binding NBS DNA, 0.27:
RCKN

one-hybrid fitness for binding NBS DNA, 0.232:
QSIS
